Assay results published in PubChem BioAssay AID1461 (National Center for Advancing Translational Sciences (NCATS), 2008).
About 2,300 (1%) of roughly 220,000 compounds were called active. Inconclusive results, whose numbers are uncertain, are shown with a selection of clear calls. The call rests on the fitted dose curve; in most records, active means well fitted inhibition curve with a large enough effect; inconclusive means small, poorly fitted or top-dose-only effect, or effect the other way; inactive means no such curve, though single readings can be large or run the other way. No potency is given beside an inconclusive call; the fits are too rough.

biological target: Neuropeptide S receptor (Homo sapiens) (UniProt Q6W5P4); experiment: qHTS Assay for Antagonists of the Neuropeptide S Receptor: cAMP Signal Transduction; details: CHO-NPSR cells, cAMP TR-FRET, antagonist mode; series mostly up to 38.3 µM; further: nearly all actives have a fitted effect of over 50% in size
Sequence of UniProt Q6W5P4 (Q6W5P4 whole entry, looked up): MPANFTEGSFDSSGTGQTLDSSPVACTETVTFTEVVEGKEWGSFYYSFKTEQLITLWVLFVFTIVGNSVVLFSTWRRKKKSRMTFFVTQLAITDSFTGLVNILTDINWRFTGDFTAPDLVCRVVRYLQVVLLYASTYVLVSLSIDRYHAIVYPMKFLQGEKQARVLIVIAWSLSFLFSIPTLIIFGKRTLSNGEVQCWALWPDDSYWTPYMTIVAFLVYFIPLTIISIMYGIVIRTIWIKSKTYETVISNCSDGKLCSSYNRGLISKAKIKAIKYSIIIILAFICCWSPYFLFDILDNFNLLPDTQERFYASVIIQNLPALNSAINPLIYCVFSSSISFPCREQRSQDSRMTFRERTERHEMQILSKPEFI
Potency means the concentration at half of the fitted maximal effect; tags describe the fitted curve by direction and shape.

SMILES | Potency
Cc1ccc(-c2csc(NC(=S)NC(=O)/C=C/c3ccco3)n2)cc1 | active: 10 µM
CCN(CC)S(=O)(=O)c1ccc2c(c1)[nH]c(=S)n2CC | inactive
COc1ccc(OC)c(C2/C(=C(/O)c3cnn(-c4ccccc4)c3C)C(=O)C(=O)N2CCN(C)C)c1 (stereo unspecified) | inactive
FC(F)Sc1ccc(NC(=S)NC(c2ccccc2)c2ccccc2)cc1 | inconclusive [inhibitor, single point]
CCCCNC(=S)Nc1cc([N+](=O)[O-])ccc1C | inactive
O=C(NC(=S)Nc1nc2c(s1)CSc1ccccc1-2)c1ccccc1 | inconclusive [inhibitor, single point]
COc1ccc(C(C(=O)Nc2ccc(F)cc2)N(C(=O)Cn2nnc3ccccc32)C2CC2)cc1 (stereo unspecified) | inconclusive [inhibitor, single point]
Cc1cnc(C(=O)N2CCc3c([nH]c4ccccc34)C2c2ccc(F)cc2)cn1 (stereo unspecified) | inconclusive [activator, single point]
COc1ccccc1C(=O)C1Nc2ccccc2-c2nnc(SC)nc2O1 (stereo unspecified) | inactive
O=C(NCc1ccc2c(c1)OCO2)c1cccc(S(=O)(=O)N2CCCCC2)c1 | inconclusive [inhibitor, partial curve]
CCOC(=O)c1[nH]c(Cc2[nH]c(C(=O)OCC)c(C)c2CCC(=O)OC)c(CCC(=O)OC)c1C | inconclusive [inhibitor, partial curve]
COC(=O)c1ccncc1N | inactive
CSc1ncccc1C(=O)Nc1nc2ccc(Oc3ccccc3)cc2s1 | inactive
Cc1cc(C)c(NC(=O)CSc2nnc(Cc3cccn3C)n2-c2ccc(F)cc2)c(C)c1 | inactive
CCN1CCN(CCc2nc3cc(NC(=O)COc4ccc(Cl)cc4)ccc3n2C)CC1 | inactive
Clc1ccc2c(c1)-c1nnc(Br)n1-c1ccccc1S2 | inconclusive [inhibitor, partial curve]
CCn1c(O)c(C=NC2CCCC(C)C2C)sc1=S (stereo unspecified) | inconclusive [activator, single point]
CCCN1C(=O)/C(=C/c2ccc(C)o2)SC1=Nc1ccc(OC)cc1 | inconclusive [inhibitor, partial curve]
O=C(NCCN1CCOCC1)NC1(C(F)(F)F)Oc2ccc(Cl)cc2O1 (stereo unspecified) | inactive
Nc1c(S(=O)(=O)c2ccccc2)c2nc3ccccc3nc2n1/N=C/c1ccco1 | inconclusive [inhibitor, partial curve]
Cc1ccccc1C(=O)Nc1nnc(CC(=O)N/N=C/c2ccncc2)s1 | inconclusive [activator, single point]
CCC1CCCN1Cn1cnc2c([nH]c3ccccc32)c1=O (stereo unspecified) | inactive
CN1C(=O)/C(=C/c2ccccc2OCc2cccc(F)c2)N(C)C1=S | inconclusive [inhibitor, partial curve, poor fit]

SMILES | Potency
N#Cc1c(-c2ccccc2)c(C#N)c2nc3ccccc3n2c1N | inconclusive [inhibitor, single point]
O=C(c1cc2nc(-c3cccs3)cc(C(F)(F)F)n2n1)N1CCCc2ccccc21 | inconclusive [inhibitor, partial curve, poor fit]
O=C(NCC1CCCO1)C(c1cccs1)N(C(=O)Cn1nnc(-c2cccs2)n1)C1CCCC1 (stereo unspecified) | inconclusive [activator, partial curve]
Cc1ccc2nc(N3CCN(C=O)CC3)nc(-c3ccccc3)c2c1 | inactive
CCOc1ccc2nc(SCC3CC3(Cl)Cl)[nH]c2c1 (stereo unspecified) | inconclusive [inhibitor, single point]
CCOC(=O)c1c(C)c(C(=O)NCc2ccccc2OC)c(C)n1C | inactive
CC(C)C(=O)NC(=S)Nc1ccccc1N1CCN(C(=O)c2ccc(Cl)cc2)CC1 | inconclusive [activator, partial curve]
S=C(NCCN1CCCCC1)Nc1ccccc1 | inactive
CC(C)CN(CC(C)C)C1=N/C(=C\c2ccco2)C(=O)N1c1ccccc1 | inconclusive [inhibitor, partial curve]
Cc1[nH]nc(N=CC2=C(O)CC(C)(C)CC2=O)c1-c1ccccc1 | inactive
COc1ccc(OC)c(-n2cnc3cc(C(=O)O)ccc32)c1 | inconclusive [inhibitor, single point]
O=C(Oc1c(CN2CCOCC2)cc(Cl)c2cccnc12)c1ccccc1Br | inconclusive [activator, partial curve]
CN1CCN(/N=C/c2c3ccccc3c(Cl)c3ccccc23)CC1 | inconclusive [inhibitor, single point]
Cc1csc(SCC(=O)Nc2cc(S(=O)(=O)N3CCOCC3)ccc2N2CCOCC2)n1 | inactive
O=C(Nc1ccc2nc(-c3ccco3)[nH]c2c1)c1ccco1 | inconclusive [inhibitor, single point]
CCCCNc1nc2c(S(=O)(=O)c3ccccc3)nnn2c2ccccc12 | inconclusive [inhibitor, single point]
Cc1c(C(=O)N2CCN(c3ccccc3F)CC2)sc2nc(-c3ccccc3)cn12 | inconclusive [inhibitor, partial curve, poor fit]
CCN(CC)CC(=O)Nc1ccccc1SCC(=O)Nc1ccsc1C(=O)OC | inconclusive [inhibitor, single point]
Brc1ccccc1-n1nnc(-c2nccs2)n1 | inactive
CCOc1ccc(C(=O)c2ccncc2)cc1 | inconclusive [inhibitor, single point]
c1ccc(CCNc2ncnc3scc(C4COc5ccccc5O4)c23)cc1 (stereo unspecified) | inconclusive [inhibitor, single point]
O=C(C1=C[C@H](c2csc3ccccc23)C[C@H](OCCCCO)O1)N1CCN(Cc2ccc3c(c2)OCO3)CC1 | inconclusive [activator, partial curve]
CCOc1ccc2[nH]c3c(N4CCc5ccccc5C4)ncnc3c2c1 | inconclusive [activator, single point]
